# Test results: PubChem BioAssay AID1362 (SRMLSC, 2008)
# The other results are listed elsewhere or left out. Shown are side measurements of this screen, not its main read-out; they come without a call. The list favours compounds with an active or inconclusive main result.
# Assay: growth inhibition of WT strain, primary screen, mitochondrial fusion inhibitor project, WT and mutant strains, chemical genetic (AID 1362); further: tested in S. cerevisiae
# Conditions: mitochondrial fusion phenotypic screen, at 10 µM
row,SMILES,inhibition [%]
1,COc1ccc(N=c2cc(-c3ccc(OC)cc3)oc3ccccc23)cc1,75.7
2,COC(=O)c1ccc(-c2sc3nc(N4CCOCC4)c4c(c3c2N)CCCC4)o1,1.78
3,Clc1cccc(Cl)c1/C=C/c1nc2ccccc2[nH]1,64.7
4,CCOC(=O)c1c(NC(NC(C)=O)C(Cl)(Cl)Cl)sc2c1CCCC2 (centres undefined),21.9
5,CCCCn1c(N2CCC(Cc3ccccc3)CC2)nc2c1c(=O)[nH]c(=O)n2C,-2.4
6,CCCc1nc(SCC(=O)N2CCC(Cc3ccccc3)CC2)c2c(=O)n(C)c(=O)n(C)c2n1,46.8
7,Cc1ccc(Nc2ncccc2C(=O)NCc2cccs2)c(C)c1,66.9
8,CCOC(=O)c1c(-c2ccc(OC)cc2)csc1/N=C/C1=C(O)CCCC1=O,5.19
9,Cc1cc(OCC(=O)Nc2ccncc2)c(C)cc1Br,51.8
10,Oc1ccc(Cl)cc1-c1cc(-c2cccc(Br)c2)n[nH]1,68.6
11,COc1ccc(OC)c(S(=O)(=O)Nc2ccc(O)c3ccccc23)c1,57.4
12,N/N=C(/Cc1nc2ccccc2[nH]1)c1ccc([N+](=O)[O-])cc1,88.8
13,Cc1cccc(N2CCN(C(=O)c3ccc(Cl)c(S(=O)(=O)NCc4ccco4)c3)CC2)c1C,10.3
14,COc1cccc(OC)c1OCCCCN1CCCC1,4.58
15,Clc1ccc(-c2nnnn2-c2ccc(Cl)c(Cl)c2)cc1Cl,74.8
16,N=c1c2c(n(Cc3ccccc3)c3c1CCC3)CCC2,38
17,Cc1ccc(N=Cc2c(C)[nH]n(-c3nc4ccccc4[nH]3)c2=O)cc1,82
18,COc1ccc(Nc2nc(C(=O)N3CCc4ccccc4C3)cs2)cc1,49.6
19,CC(C)c1nc(N2CCCC2)c(C#N)c2c1CCCC2,36.6
20,COc1ccc(/C=N/Nc2cc(C)nc(-n3nc(C)cc3C)n2)cc1,22.6
21,COc1ccc2cc3cc(C(=O)NCCN4CCc5ccccc5C4)sc3nc2c1,39.4
22,Nn1c(SCC(=O)Nc2ccc3c(c2)OCO3)nnc1-c1ccncc1,20.8
23,CSc1ccc(OC2CCCCC2NS(=O)(=O)c2ccc(Cl)cc2)cc1 (centres undefined),19.2

row,SMILES,inhibition [%]
1,CC(=O)C(N=Nc1ccccc1)(Sc1nnc(-c2ccccc2)n1-c1ccccc1)C(C)=O,-12.3
2,S=C1NC(C23CC4CC(CC(C4)C2)C3)=CC(c2ccc3c(c2)OCO3)N1 (centres undefined),12.2
3,CC(O)CNc1nc2sc3c(c2c(=O)n1CCc1ccccc1)CCCCC3 (centres undefined),27.7
4,COc1cccc(NC(=S)N/N=C2\CC3CCC2(C)C3(C)C)c1 (centres undefined),46
5,Cc1ccc(NC2=C/C(=N\S(=O)(=O)c3cccs3)c3ccccc3C2=O)c(C)c1,61.4
6,O=[N+]([O-])c1ccc(Oc2cccc3cccnc23)c([N+](=O)[O-])c1,47.3
7,Cc1ccccc1NC(=S)NCc1ccc2[nH]c3c(c2c1)CCCC3,55.3
8,Cc1ccccc1C(=O)Nc1nnc(-c2ccc(F)cc2)o1,61.7
9,COc1ccccc1-n1cnnc1SCC(=O)Nc1cc(C(C)(C)C)nn1-c1ccccc1,16.2
10,CCOC(=O)C1CCN(c2c(C(=O)c3ccccc3)cnc3ccc(Cl)cc23)CC1,75.1
11,COCCNC(=S)NCCc1ccc(Cl)cc1Cl,48.1
12,c1ccc(N/N=C(\Cc2nc3ccccc3[nH]2)c2ccccc2)cc1,43.3
13,CCCCCc1ccc(OCCCC[n+]2ccc(C)cc2)c(CCCCC)c1,93.9
14,CCOC(=O)c1c(C)[nH]c(C(=O)OCC(=O)Nc2cc(Cl)ccc2OC)c1C,-0.08
15,Cc1oc(-c2ccccc2F)nc1CN1CCC(C(=O)NCCC2=CCCCC2)CC1,-7.18
16,CC1CN(Cc2ccccc2)c2ccccc2NC1=S (centres undefined),29.4
17,Cc1ccc(OCC(=O)c2ccc3c(c2)CCCC3)cc1C,38.6
18,COc1ccccc1NC(=S)NNC(=O)c1c(Cl)c(C)nn1C,7.7
19,Cc1cc(N2CCN(c3ccccc3Cl)CC2)n2cc(-c3ccccc3)nc2n1,47.2
20,O=C(Nc1nc(-c2cc(Cl)sc2Cl)cs1)c1ccccc1,53.4
21,Cc1ccc(SCCNC(=S)Nc2ccc(C)cc2C)cc1,40.3
22,CCn1c(-c2cc(-c3ccc(C)c(C)c3)nc3ccccc23)n[nH]c1=S,49.1
23,N=c1c2c(n(Cc3ccc(Cl)c(Cl)c3)c3c1CCC3)CCCC2,61.4

row,SMILES,inhibition [%]
1,Nc1nc2ccc(S(=O)(=O)N3CCCCC3)cc2s1,59.9
2,Cc1ccc(C(=O)Nc2cc(Cl)ccc2N2CCCCC2)s1,16.3
3,Clc1ccccc1Cn1c(/C=C/c2ccco2)nc2ccccc21,2.67
4,C=CCc1cccc(/C=N/NC(=O)CNc2cccc3ccccc23)c1O,56.3
5,O=C(Nc1ccc([N+](=O)[O-])cc1)Nc1ccc(OC(F)F)c(Cl)c1,81.1
6,CCOC(=O)c1cnc(-n2nc(C)cc2C)nc1NC1CCCCC1,82.3
7,O=[N+]([O-])c1ccc(NC(=S)NCCc2ccc(Cl)cc2)cc1,78.2
8,CCOC(=O)N1CCN(CC(O)COC2CC(C)CCC2C(C)C)CC1 (centres undefined),-10.5
9,CC1(C)OC(=O)N(c2ccccc2)C12C=Cc1c(ccc3ccccc13)O2 (centres undefined),20.6
10,O=C(Nc1ncc(Br)s1)C(Cc1ccccc1)n1cccc1 (centres undefined),52
11,Fc1cccc(CCN2C(=S)NC[C@@H]2Cc2ccccc2)c1,60.1
12,CCCCc1ccc(NC(=S)Nc2ccc(Cl)c(S(=O)(=O)N(C)C)c2)cc1,10.1
13,CC1Cc2ccccc2N1C(=S)NC(=O)c1ccc(Cl)cc1Cl (centres undefined),59.7
14,Cc1cccc(NC(=S)c2nc3ccccc3s2)c1,56.9
15,O=C(Nc1cccc(Cl)c1)C1C2CCC3C(CCC21)C3(Cl)Cl (centres undefined),45.2
16,O=C(c1cc(-c2ccc(Cl)cc2)n(-c2ccc(Cl)c(Cl)c2)n1)N1CCOCC1,-8.28
17,CCNc1nc(NCC)nc(SCCOC(=O)COc2ccc(Cl)cc2Cl)n1,49.5
18,CCC(CC)c1nnc(NC(=O)c2ccc3ccccc3n2)s1,52.2
19,O=C(Nc1nnc(C2CC2)o1)c1ccc(S(=O)(=O)N2CCCc3ccccc32)cc1,20.7
20,O=[N+]([O-])c1cccnc1N1CCC(c2cc(-c3ccc(Cl)cc3)n[nH]2)CC1,43.7
21,C[n+]1c2n(c3ccccc31)N=C(c1cc(C(C)(C)C)c(O)c(C(C)(C)C)c1)CS2,45.7
22,Cc1ccc(NC(=S)N2CCC(c3ccc(C)cc3)C2)cc1 (centres undefined),60.5
23,COc1ccc(NC(=S)NCCc2ccc(Cl)cc2)c(OC)c1,41.1
